# Sequences with one replicate were seen in a single cluster, so their values are uncertain.
# System: ATP
# Assay: switch fluorescence ratio, 500 uM ATP over buffer (Cy3 cluster intensity, sum of 5 cycles each) (fold (ratio)); higher = stronger signal-on switching upon ATP binding; sequences stand for … in TCGTCGGCAGCGTCAGATGTGTATAAGAGACAGTTTTTTTTTTTTTTTTTTTTTTTTT…TC
# Conditions: aptamer strand: ATP DNA aptamer (quencher-CACCTGGGGGAGTATTGCGGAGGAAGG + anchor), 100 nM annealed; ATP concentration: 500 uM; one replicate
# How it was run: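 After annealing to 100 nM quencher-labelled ATP aptamer, Cy3-labelled switching-strand clusters on a modified Illumina MiSeq flow-cell were imaged in selection buffer. A second image followed after 15 min with 500 uM ATP at 22 °C, and five such buffer/ATP cycles were done, each separated by NaOH stripping and re-annealing. The fluorescence ratio, averaged per switch-domain sequence, is summed target-cycle over summed buffer-cycle Cy3 intensity per cluster, with clusters outside 100-1000 RFU excluded.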
# 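Further: ATP exposure 15 min at 22 °C before imaging.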
row,Sequence,switch fluorescence ratio
1,GCGTAAGTTT,1.04
2,GCGTAATGTA,0.967
3,GCGTACGCTT,0.96
4,GCGTATCGAA,1.02
5,GCGTATGGG,1.03
6,GCGTATTGGG,0.958
7,GCGTCACAAT,1.03
8,GCGTCATATG,0.993
9,GCGTCGTCAC,1.01
10,GCGTCTGTCT,1.01
11,GCGTGACTTT,0.946
12,GCGTGATGAG,0.999
13,GCGTGCTTTT,1.06
14,GCGTGTAGTT,0.999
15,GCGTGTGGG,0.998
16,GCGTGTTGGG,1.05
17,GCGTTACGCT,1.02
18,GCGTTAGATC,1.06
19,GCGTTATATG,1.02
20,GCGTTCGGT,0.976
21,GCGTTGGACT,0.973
22,GCGTTGGAGG,0.994
23,GCGTTGGAT,0.986
24,GCTAAAAATG,0.986
25,GCTAAAACGT,1
26,GCTAAAATCA,0.986

row,Sequence,switch fluorescence ratio
1,GCTAACACGC,1.02
2,GCTAACTCGC,1.16
3,GCTAAGGGGT,0.977
4,GCTAATACGG,1.6
5,GCTAATCTAG,1
6,GCTAATGTAA,0.987
7,GCTACAC,1.09
8,GCTACAGACA,1.08
9,GCTACAGCTC,1.02
10,GCTACTTGTA,1.03
11,GCTAGACCAG,1.02
12,GCTAGATAC,2.28
13,GCTAGATCCA,0.964
14,GCTAGCACTC,1
15,GCTAGCAGGG,1.01
16,GCTAGGAGAA,0.97
17,GCTAGGTATT,1.02
18,GCTAGGTCG,1.15
19,GCTAGTAACC,1.02
20,GCTAGTAATT,0.995
21,GCTAGTCACG,0.979
22,GCTAGTCGAC,0.984
23,GCTAGTGAAT,0.994
24,GCTAGTGCAG,1.01
25,GCTAGTTCGG,0.941
26,GCTAGTTGCT,0.98

row,Sequence,switch fluorescence ratio
1,GCTATCTAAA,0.988
2,GCTATCTTCA,1.07
3,GCTATGTGCT,0.993
4,GCTCAACCCC,1.04
5,GCTCACACAC,1.58
6,GCTCAGGAAG,1.07
7,GCTCAGGCTA,1.04
8,GCTCCCCTTT,1.46
9,GCTCCCTATA,2.27
10,GCTCGCAATT,2.57
11,GCTCGCACTA,1.32
12,GCTCGGAGGC,1.02
13,GCTCGGGACA,1.02
14,GCTCGGGTTT,0.978
15,GCTCTACGAA,1.06
16,GCTCTCCAGC,1.04
17,GCTCTCCCTT,1.12
18,GCTCTCGGCA,1.03
19,GCTCTCGGGT,0.998
20,GCTCTGTCCT,1.04
21,GCTCTTATTG,1.01
22,GCTCTTCCAT,0.996
23,GCTCTTGGG,0.923
24,GCTCTTTCTA,1.01
25,GCTGAATTTT,0.973
26,GCTGACGGTG,0.993

row,Sequence,switch fluorescence ratio
1,GCTGATAAGG,1.02
2,GCTGATACGA,1.3
3,GCTGATATAG,0.993
4,GCTGATCGGG,0.994
5,GCTGATTAAG,0.993
6,GCTGATTG,0.985
7,GCTGCACGTC,1.05
8,GCTGCCAGGT,1.18
9,GCTGCCTTAT,1.02
10,GCTGCGGTCA,1.06
11,GCTGCGTCCA,1.06
12,GCTGCTCGAT,1.01
13,GCTGGAATCG,0.989
14,GCTGGAGACC,0.997
15,GCTGGATAC,1.22
16,GCTGGCACAG,1
17,GCTGGCATGG,1
18,GCTGGTAGGT,0.995
19,GCTGGTATGG,0.986
20,GCTGTACGTA,1.1
21,GCTGTAGATC,1.04
22,GCTGTGGTTG,0.997
23,GCTGTTAGCC,0.979
24,GCTGTTATC,1.02
25,GCTGTTCAGC,1.1
26,GCTGTTCCGT,1

row,Sequence,switch fluorescence ratio
1,GCTGTTGACG,0.983
2,GCTGTTTCA,1.01
3,GCTGTTTTG,1.01
4,GCTTAAGATG,0.958
5,GCTTAATATC,1.06
6,GCTTAATGGG,0.939
7,GCTTAATTGT,1.03
8,GCTTACCGAG,1.01
9,GCTTACTATA,1.08
10,GCTTATTG,0.993
11,GCTTATTGAA,0.987
12,GCTTCAAAAT,1
13,GCTTCAGGTG,3.82
14,GCTTCATTTA,0.988
15,GCTTCCCCAC,1.88
16,GCTTCGTAGC,1.03
17,GCTTCTAGTT,0.99
18,GCTTCTCTC,1.08
19,GCTTCTGATC,1.01
20,GCTTCTTGTA,1.02
21,GCTTGACGCG,0.984
22,GCTTGATGAT,1.01
23,GCTTGCCGGG,1.01
24,GCTTGCGATT,1.03
25,GCTTGCGGAG,1.06
26,GCTTGCTGTT,1.01

row,Sequence,switch fluorescence ratio
1,GCTTGGGCGT,0.976
2,GCTTGGGTTG,1.05
3,GCTTTAAAGT,1.03
4,GCTTTCAGGT,1
5,GCTTTCCTCT,1.17
6,GCTTTCTGTA,0.993
7,GCTTTGGGGT,0.954
8,GCTTTTCCGT,1.06
9,GGAAAATGCT,0.995
10,GGAAACGACT,0.972
11,GGAAAGAAC,1
12,GGAAAGATCA,0.978
13,GGAAAGGTGC,1.38
14,GGAAATCATA,1.05
15,GGAAATGGAG,0.971
16,GGAACAATGC,2.39
17,GGAACCCGCT,3.22
18,GGAACCGAGC,1.67
19,GGAACCTTGT,1.09
20,GGAACGACGT,1.04
21,GGAACGCCAT,1.08
22,GGAACGTGGG,0.992
23,GGAACTGGGA,0.994
24,GGAAGAACCA,1.07
25,GGAAGAATCT,0.952
26,GGAAGCCGGC,1.05

row,Sequence,switch fluorescence ratio
1,GGAAGGCACG,1.05
2,GGAAGGCCAG,0.96
3,GGAAGGTAGC,0.959
4,GGAAGGTCGG,0.949
5,GGAAGGTGAT,1.12
6,GGAAGTCGC,1
7,GGAAGTCGCG,1.01
8,GGAATACTAA,1.17
9,GGAATAGACC,0.984
10,GGAATAGAGG,0.965
11,GGAATATATT,0.988
12,GGAATATCAT,0.997
13,GGAATCATA,1.01
14,GGAATCCGGT,1.03
15,GGAATCTTTG,1.05
16,GGAATGTGTC,0.998
17,GGAATTAGCG,0.973
18,GGAATTCGAG,1.03
19,GGAATTGGCA,0.964
20,GGAATTGTAG,1
21,GGACACATGA,1.04
22,GGACACCGGA,1.03
23,GGACAGCGTC,0.971
24,GGACATGGGG,1.01
25,GGACCAACGT,1.27
26,GGACCCAGAG,0.974

row,Sequence,switch fluorescence ratio
1,GGACCGACAT,1.13
2,GGACCGGATG,0.966
3,GGACCGTAGT,0.985
4,GGACGACGAC,1.2
5,GGACGAGGGC,0.971
6,GGACGGAGGA,0.924
7,GGACGGGCAA,1.07
8,GGACGGTTTC,1
9,GGACGTAATA,2.72
10,GGACGTTCGT,0.96
11,GGACTATATG,0.99
12,GGACTCACTG,1.01
13,GGACTCGATG,0.98
14,GGACTCTCGC,1.07
15,GGACTGGCTT,0.895
16,GGACTTATAG,1.03
17,GGACTTCTTC,1.16
18,GGAGAAGCGA,1.02
19,GGAGACTGCA,1.06
